Data reported in article PMC4336329 (PLoS ONE, 2015).
The whole screen tested about 310,000 compounds, of which about 14,000 (4.5%) showed an effect of 50% or more. The effect is printed as a negative number. This is one part of the list.

What follows are compounds tested against human ether-à-go-go-related gene (hERG) potassium channel (human, UniProt Q12809) (assay: primary screen, population patch clamp on CHO cells stably expressing hERG).
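Note: peak tail current of the secondary pulse compared with the same well before compound.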

human ether-à-go-go-related gene (hERG) potassium channel, sequence (Q12809 whole entry, looked up): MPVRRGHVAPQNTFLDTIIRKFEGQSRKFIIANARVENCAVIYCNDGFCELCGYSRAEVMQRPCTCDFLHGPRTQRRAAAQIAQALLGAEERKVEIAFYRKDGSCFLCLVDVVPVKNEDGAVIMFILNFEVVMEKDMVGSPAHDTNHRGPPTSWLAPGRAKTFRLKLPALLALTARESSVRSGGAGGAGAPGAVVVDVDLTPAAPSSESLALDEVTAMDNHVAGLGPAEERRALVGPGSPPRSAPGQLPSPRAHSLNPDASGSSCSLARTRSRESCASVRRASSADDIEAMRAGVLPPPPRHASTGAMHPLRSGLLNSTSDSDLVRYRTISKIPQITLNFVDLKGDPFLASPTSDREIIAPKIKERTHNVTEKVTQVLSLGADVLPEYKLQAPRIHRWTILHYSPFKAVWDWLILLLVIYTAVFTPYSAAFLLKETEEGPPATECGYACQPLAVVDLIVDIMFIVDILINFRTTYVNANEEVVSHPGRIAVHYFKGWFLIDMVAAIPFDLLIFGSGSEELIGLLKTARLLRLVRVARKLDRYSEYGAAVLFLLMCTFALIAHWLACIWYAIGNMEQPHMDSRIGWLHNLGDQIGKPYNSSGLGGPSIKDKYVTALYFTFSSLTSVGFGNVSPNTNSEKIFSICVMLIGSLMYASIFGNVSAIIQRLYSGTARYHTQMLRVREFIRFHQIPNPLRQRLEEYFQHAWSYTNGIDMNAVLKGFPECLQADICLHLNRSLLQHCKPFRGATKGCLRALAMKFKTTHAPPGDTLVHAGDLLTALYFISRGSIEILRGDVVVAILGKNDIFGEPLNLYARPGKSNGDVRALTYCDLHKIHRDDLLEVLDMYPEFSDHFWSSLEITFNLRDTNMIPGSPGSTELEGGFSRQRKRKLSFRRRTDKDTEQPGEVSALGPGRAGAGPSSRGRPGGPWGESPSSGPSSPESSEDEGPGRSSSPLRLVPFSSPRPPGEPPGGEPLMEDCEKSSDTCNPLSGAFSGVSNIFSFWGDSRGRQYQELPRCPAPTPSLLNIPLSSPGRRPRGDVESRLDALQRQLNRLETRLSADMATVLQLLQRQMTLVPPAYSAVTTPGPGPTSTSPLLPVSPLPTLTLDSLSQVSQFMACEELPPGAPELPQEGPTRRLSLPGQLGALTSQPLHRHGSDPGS

Structure (SMILES) | hERG current change (%, negative = inhibition) at 10uM [%]
CCOC(=O)c1ccc(Nc2nc(N3CCOCC3)nc(N3CCOCC3)n2)cc1.Cl | -1.62
COc1ccc(CCNS(=O)(=O)c2ccc(Br)cc2)cc1 | -11.5
O=C(O)CCCn1cc(NC(=O)c2ccc(F)cc2)cn1 | 26.1
CCOC(=O)c1ccc(-n2c(CN3CCN(CCO)CC3)nc3ccc([N+](=O)[O-])cc3c2=O)cc1 | -25.1
CC(C)(C)OC(=O)NCCc1nnc(SCC(=O)Nc2ccc(Br)cc2)o1 | -2.79
Cn1cc(C=C2C(=O)NC(=O)NC2=O)c2ccccc21 | 10.6
COn1c(SCC(=O)N(C)C)nc2ccccc2c1=O | 8.12
CCc1c(C(=O)NNC(=S)Nc2ccc(S(=O)(=O)Nc3ncccn3)cc2)csc1C | 22.7
CCN(CC(=O)Nc1cccc(OC)c1)C(=O)C1CCN(C(=O)Nc2ccccc2)CC1 | 16.7
COC(=O)c1cccc(NC(=O)C2COc3ccccc3O2)c1 (centres unmarked) | 5.87
CCOC(=O)N1CCN(C(=O)C(=O)NNC(=O)COc2ccc(Cl)c(C)c2)CC1 | -3.93
CCc1nnc(NC(=O)c2ccc(S(=O)(=O)N(CC(C)C)CC(C)C)cc2)o1 | -4.9
O=C(NNc1cccc(Cl)n1)c1cccnc1Cl | 17.5
CCOP(=O)(OCC)C(NC(=O)Cc1ccccc1)C(Cl)(Cl)Cl (centres unmarked) | 11.5
COc1cccc(/C=C/C(=O)OCC(=O)c2ccc3c(c2)NC(=O)CO3)c1 | 12.7
O=C(CN1CCC(n2nnc3cc(C(F)(F)F)ccc32)CC1)NNC(=O)c1ccco1 | -24.6
CCOc1ccc(C(=O)OCC(=O)NCCNC(=O)COC(=O)c2ccc(OCC)cc2)cc1 | 13.8
Cc1ccc(N2C(=O)N(CC(=O)Nc3ccc([N+](=O)[O-])cc3)C(=O)C2C)cc1 (centres unmarked) | 11
COc1ccc(OC)c(NC(=O)c2sc3nc(Cc4ccccc4)cc(C(F)(F)F)c3c2N)c1 | 6.89
Cc1ccc(OC(C)C(=O)Nc2cc(C)on2)cc1 (centres unmarked) | 2.53
CN=c1scc(C)n1/N=C/c1cc(Br)c(O)c(Br)c1 | 12.8
Cc1c(Cl)cccc1NC(=S)N(Cc1cccs1)C1CCCC1 | 12.8

Structure (SMILES) | hERG current change (%, negative = inhibition) at 10uM [%]
COc1ccc(S(=O)(=O)CCC(=O)Nc2cc(C)ccc2OC)cc1 | -1.49
COc1cc(/C=C2/SC(=S)N(c3ccccc3)C2=O)ccc1Oc1nc(N2CCOCC2)nc(N2CCOCC2)n1 | 1.38
CCCNC(=O)c1ccccc1NC(=O)CN(c1ccccc1)S(=O)(=O)N(C)C | -6.38
COc1cc2c3nnc(-c4ccccc4)c-3cn(Cc3ccc(F)cc3)c2cc1OC | -76.8
Cc1ccc(-n2c(=O)[nH]c3c(C(N)=O)nc(C(C)C)nc32)cc1 | 15.1
CCC1C(=O)C(C)(C)C(=O)OC1c1ccc([N+](=O)[O-])cc1 (centres unmarked) | -7.26
Cc1ccc(Cn2c(CCNc3nc(-c4ccc(Cl)c([N+](=O)[O-])c4)cs3)nc3cc(Cl)c(Cl)cc32)cc1 | -0.903
CCOC(=O)c1cc(-c2ccccc2)nc2nc(N(CC)CC)sc12 | 17.6
CCO[C@H]1OC(C(=O)NC2CC2)=C[C@@H](c2ccc(C(F)(F)F)cc2)[C@@H]1CCCO | -32.9
CC(C)CN(C(=O)COC(=O)c1ccccc1Sc1ccccc1C#N)C1CCS(=O)(=O)C1 (centres unmarked) | 2.75
COc1ccc(N2CCN(C(=O)c3ccc(-c4nc5ccccc5s4)o3)CC2)cc1 | 0.875
Cn1c(N)c(C(=O)COC(=O)CCc2nc3ccccc3s2)c(=O)n(C)c1=O | 5.93
Cc1c(C(=O)Nc2ccccc2F)sc2ncn(CC(=O)N3CCCCC3)c(=O)c12 | 10.6
C=CCN(CC(O)c1cccc([N+](=O)[O-])c1)C(C)CCc1ccccc1.Cl (centres unmarked) | -36.4
O=C(c1ccccc1)N1CCN(C2C3CC4CC(C3)CC2C4)CC1 (centres unmarked) | -5.27
COc1ccc2[nH]cc(CCN)c2c1 | 17.9
O=C1CNC(=S)N1Cc1ccccc1Cl | 6.14
CS(=O)(=O)N(CC(=O)N1CCN(Cc2ccc3c(c2)OCO3)CC1)Cc1ccc(Cl)cc1 | -34.7
CCc1n[nH]c(=S)n1/N=C/c1ccc(NC(C)=O)cc1 | 13
N#Cc1cc2c(nc1SC1CCCCC1O)CCCC2 (centres unmarked) | -12
COc1ccnc2c1c(=O)n(Cc1ccccc1Cl)c(=O)n2C | -0.81
CCOC(=O)C1=C(C)NC(=O)NC1c1ccc(F)cc1 (centres unmarked) | 12.9

Structure (SMILES) | hERG current change (%, negative = inhibition) at 10uM [%]
Cc1c(C(=O)NNC(=O)c2ccncc2)oc2ccc(Br)cc12 | -68.5
Cn1c(=O)c([N+](=O)[O-])c(NCc2ccc3c(c2)OCO3)c2ccccc21 | -27.4
Nc1ncnc(Nc2cccc(Cl)c2Cl)n1 | 3.18
O=C1NC(=O)C(CC(=O)N(Cc2ccco2)C2(C(=O)NC3CCCC3)CCCCC2)N1 (centres unmarked) | 22.9
CCCCC(=O)NC(c1ccc([N+](=O)[O-])cc1)c1c(O)ccc2ccccc12 (centres unmarked) | -12.9
COc1cccc(NC(=O)c2ccccc2-c2ccccc2C(=O)O)c1 | 10.1
Cc1cnc(NC(=O)c2ccc(-c3ccc([N+](=O)[O-])cc3)o2)s1 | 16.1
O=C(Cn1cccc1C(=O)c1ccccc1)NCCN1CCCCCC1 | -35.3
Cl.N=c1ccn2c(n1)O[C@H]1[C@@H](CO)[C@H](O)O[C@H]12 | 14.8
Cc1ccccc1NC(=O)C(NS(=O)(=O)c1ccc2c(c1)c(=O)n(C)c(=O)n2C)c1ccccc1 (centres unmarked) | -21.3
CCNC(=O)CC1SC(=Nc2ccc(C)c([N+](=O)[O-])c2)N(C)C1=O (centres unmarked) | -2.45
Cc1nnc(SCc2ccc(F)cc2Cl)s1 | -10.3
COC(=O)COc1ccc(-c2nccc(-c3ccccn3)n2)cc1 | 13.3
Cl.O=C(NCCN1CCCCC1)c1c(O)c2ccccc2[nH]c1=O | -18.5
CCCCc1nnc(NC(=O)c2ccc3c(=O)n4c(nc3c2)CCC4)s1 | -15
Cn1c(=O)c2c(nc(CN3CCC(C(N)=O)CC3)n2Cc2c(Cl)cccc2Cl)n(C)c1=O | -11.8
Cn1cccc1C(=O)NC(=O)COC(=O)CC12CC3CC(CC(Br)(C3)C1)C2 | 5.79
Cc1ccc(S(=O)(=O)N2CCN(c3nc(CN4CCCC4)nc4sc(C)c(C)c34)CC2)cc1 | -77.7
O=C(c1ccncc1)c1ccc(NS(=O)(=O)c2ccc(Br)s2)cc1 | -10.7
O=C(O)c1ccccc1NCc1cccs1 | 13.2
O=C(COc1ccccc1F)N/N=C1\CCCc2ccccc21 | 11.4
Cc1ccc(C(=O)N2CCN(S(=O)(=O)N3CCCCC3)CC2)cc1 | 7.35

Structure (SMILES) | hERG current change (%, negative = inhibition) at 10uM [%]
CC(=O)Nc1ccc(NC(=O)CSc2nc3ccccc3nc2N2CCC(C)CC2)cc1 | 8.95
CC(C)(C)c1ccc(OCCC(=O)OCC(=O)N2c3ccccc3NC(=O)C2(C)C)cc1 | -12.1
CC(=O)Nc1ccc(NC(=O)CC2CCCC2)cc1 | 16.7
COc1ccc(Cl)cc1NC(=O)NCCN1CCNC1=O | 2.83
O=C(NCCn1cc(SCc2ccccc2)c2ccccc21)c1ccccc1F | 8.39
COc1ccc(S(=O)(=O)Cc2ccc(C(=O)NCc3cccs3)o2)cc1 | -29
Cc1ccc(C)c(NC(=O)CSc2nnc(CCCCCNC(=O)OC(C)(C)C)o2)c1 | -29.8
CC(C)C(c1nnnn1CCc1ccccc1)N1CCOCC1 (centres unmarked) | -0.645
Cc1ccc(C(=O)O)cc1N1C(=O)c2cccc3c([N+](=O)[O-])ccc(c23)C1=O | 8.43
c1ccc(CSc2nnc(NC3=NCCCCC3)s2)cc1 | -18.1
O=C(O)c1ccccc1C(=O)NC1CCN(c2nccc(C(F)(F)F)n2)CC1 | 9.16
CCOC(=O)N1CCN(C(=O)Cn2ccc3c(OC)cccc3c2=O)CC1 | 6.78
CCn1nnc(-c2ccc(N)cc2)n1 | 13.8
CCOC(=O)c1cc2c(ccn2C)n1CC(=O)N(CC)CC | 11.1
Cl.N#C/C(=C\c1ccccc1)C(=O)NCCN1CCOCC1 | 15
CN(C1CCS(=O)(=O)C1)S(=O)(=O)c1cccc2nsnc12 (centres unmarked) | -13.5
CCOC(=O)C1CCN(S(=O)(=O)c2c(C)[nH]c(=O)[nH]c2=O)CC1 | -0.439
COc1ccc(C(=O)C[n+]2ccc3c(c2)nc(-c2ccc(OC)cc2OC)n3C)cc1.[Br-] | 8.64
COCCN(C(=O)CSc1nc2nc(C)cc(C)n2n1)c1c(N)n(Cc2ccccc2)c(=O)[nH]c1=O | 38
CC(C)OP(=O)(OC(C)C)C(Nc1ccc(C(=O)O)cc1)c1ccccc1 (centres unmarked) | 16.1
